# Laboratory results from the supplement of paper PMC7826260.
# The other results are listed elsewhere or left out. Cleavage of a single-stranded DNA pool by Rep nickase domains was read by sequencing (1 h at 37 °C, 3 µM enzyme); the outer parts of the 90-letter strands are left off. The score is log2 (uncut reads / reads without enzyme); more negative means more cut, near 0 not cut, and no call is made. Because reads are shares of a total, they shift together; where an enzyme cuts many sequences, the uncut ones exceed 0.
# Tests used:
# Assay in all cases: uncleaved DNA left, log2 of reads against the no-enzyme library (log2 ratio); higher = less cleavage (more negative = more Rep cleavage of the k-mer); sequences stand for … in CTCGTCCG…ACCGGAGA
# [1] = test system: T1, Rep nickase domain of Muscovy duck circovirus
# T1 sequence (Rep 1-111, printed without the tag): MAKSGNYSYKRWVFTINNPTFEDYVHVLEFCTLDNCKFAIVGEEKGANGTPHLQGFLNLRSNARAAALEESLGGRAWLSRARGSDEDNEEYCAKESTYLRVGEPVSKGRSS
# Method: (§1)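 A pool of 90-nt single-stranded DNAs with seven random bases just before the constant AC of the nick site (name = the seven bases) was cut by 3 µM recombinant His6-SUMO-tagged Rep nickase domain (300 nM DNA, 50 mM HEPES pH 8.0, 50 mM NaCl, 1 mM MnCl2, 1 h, 37 °C, three replicates). Uncut DNA was amplified and sequenced.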
# [2] = test system: T2, Rep nickase domain of banana bunchy top virus
# T2 sequence (Rep 1-94, printed without the tag): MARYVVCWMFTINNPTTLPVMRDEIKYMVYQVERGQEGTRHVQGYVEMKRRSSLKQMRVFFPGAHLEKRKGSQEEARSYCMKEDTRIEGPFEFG
# Method: as §1
# [3] = test system: T3, Rep nickase domain of cabbage leaf curl virus
# T3 sequence (Rep 1-116, printed without the tag): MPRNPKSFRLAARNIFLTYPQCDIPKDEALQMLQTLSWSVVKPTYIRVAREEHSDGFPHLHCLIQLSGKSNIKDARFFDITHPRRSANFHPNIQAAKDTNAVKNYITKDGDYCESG
# Method: as §1
# [4] = test system: T4, Rep nickase domain of chickpea chlorotic dwarf virus
# T4 sequence (Rep 1-124, printed without the tag): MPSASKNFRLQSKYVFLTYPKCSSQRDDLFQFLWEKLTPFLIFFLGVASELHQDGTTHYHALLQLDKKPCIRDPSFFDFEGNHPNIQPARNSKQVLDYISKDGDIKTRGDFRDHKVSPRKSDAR
# Method: as §1
# [5] = test system: T5, Rep nickase domain of faba bean necrotic yellows virus
# T5 sequence (Rep 1-98, printed without the tag): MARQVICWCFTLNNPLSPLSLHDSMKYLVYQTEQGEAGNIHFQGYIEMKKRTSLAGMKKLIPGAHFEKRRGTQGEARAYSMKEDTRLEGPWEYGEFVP
# Method: as §1
# [6] = test system: T6, Rep nickase domain of maize striate mosaic virus
# T6 sequence (Rep 1-117, printed without the tag): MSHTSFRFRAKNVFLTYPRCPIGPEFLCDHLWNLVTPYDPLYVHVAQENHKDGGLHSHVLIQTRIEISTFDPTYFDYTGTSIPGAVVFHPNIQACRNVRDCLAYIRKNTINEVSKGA
# Method: as §1
# [7] = test system: T7, Rep nickase domain of porcine circovirus 2
# T7 sequence (Rep 2-116, printed without the tag): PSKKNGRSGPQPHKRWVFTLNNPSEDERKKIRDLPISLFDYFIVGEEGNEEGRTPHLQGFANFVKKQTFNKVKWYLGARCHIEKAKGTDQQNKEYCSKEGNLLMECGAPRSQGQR
# Method: as §1
# [8] = test system: T8, Rep nickase domain of tomato golden mosaic virus
# T8 sequence (Rep 1-124, printed without the tag): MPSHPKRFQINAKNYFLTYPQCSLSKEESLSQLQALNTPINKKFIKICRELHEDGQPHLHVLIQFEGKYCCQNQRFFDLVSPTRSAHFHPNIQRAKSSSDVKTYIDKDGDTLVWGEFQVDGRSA
# Method: as §1
# [9] = test system: T9, Rep nickase domain of tomato yellow leaf curl virus
# T9 sequence (Rep 1-136, printed without the tag): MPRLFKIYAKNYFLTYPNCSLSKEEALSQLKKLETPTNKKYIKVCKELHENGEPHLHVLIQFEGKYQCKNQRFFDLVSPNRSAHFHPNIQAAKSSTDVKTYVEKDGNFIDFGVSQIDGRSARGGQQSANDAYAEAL
# Method: as §1
# [10] = test system: T10, Rep nickase domain of wheat dwarf virus
# T10 sequence (Rep 1-137, printed without the tag): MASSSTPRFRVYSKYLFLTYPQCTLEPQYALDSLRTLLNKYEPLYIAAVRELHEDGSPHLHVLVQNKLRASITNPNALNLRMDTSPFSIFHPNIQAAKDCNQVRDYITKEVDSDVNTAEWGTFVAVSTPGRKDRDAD
# Method: as §1
Sequence,uncleaved DNA left (log2) [1],uncleaved DNA left (log2) [2],uncleaved DNA left (log2) [3],uncleaved DNA left (log2) [4],uncleaved DNA left (log2) [5],uncleaved DNA left (log2) [6],uncleaved DNA left (log2) [7],uncleaved DNA left (log2) [8],uncleaved DNA left (log2) [9],uncleaved DNA left (log2) [10]
AGGGCTC,-0.0287,-0.0762,0.25,0.806,-0.0859,1.08,-0.0147,-0.0274,-0.195,-0.0115
AGCACGA,-0.0386,-0.000344,-0.0355,0.152,-0.00798,0.194,-0.0166,0.0411,-0.0802,0.0377
GCTGGAG,0.00324,0.032,-0.653,-0.32,-0.0616,-1,0.125,0.01,0.0551,-0.133
GTCGTAT,-0.102,0.00712,0.384,0.886,0.0466,1.65,0.0938,0.0331,0.187,0.118
GAGATGT,0.0349,0.0491,0.595,1.28,0.0551,1.67,-1.7,0.0171,0.101,0.111
GGTCGAA,0.0828,0.13,0.565,1.28,0.115,1.69,0.176,0.112,0.157,0.133
CGAACAC,-0.00258,-0.0728,0.0853,-0.164,0.115,-0.194,-0.0417,-0.082,0.0211,0.133
AACCGAT,0.117,0.0982,0.202,0.541,0.0173,0.967,-0.194,0.108,-0.123,0.134
CAGTAGG,0.0224,-0.0513,-0.14,0.178,-0.0429,-0.817,-0.137,-0.0358,-0.0639,-0.105
GGAGTAG,-0.0554,-0.00452,0.149,0.489,-0.0266,0.0611,0.143,-0.0366,0.0841,-0.0615
CGTACGC,-0.0178,0.000806,-0.019,-0.0286,-0.115,-0.347,-0.0286,-0.0277,-0.0645,-0.061
ATAACTC,-0.0309,0.0368,-0.264,-1.39,-0.0624,-0.772,0.0565,-0.105,-0.0744,-0.0712
ATACTAT,0.0981,-0.00928,-0.0749,-1.52,-0.0167,-0.566,-0.163,0.0348,0.0249,0.0328
ACTGCGT,0.036,-0.0903,-0.824,-0.0906,-0.0414,-0.696,0.0967,-0.158,-0.117,-0.192
GACCCAG,0.0237,-0.00777,-0.391,-0.273,-0.0407,-0.698,-0.148,0.0703,-0.00437,-0.046
CAGTACC,-0.065,-0.113,-0.0808,-0.727,-0.452,-0.236,-2.79,-0.0507,0.0953,0.14
GCTTAGA,0.0794,0.0408,0.132,0.415,0.1,-0.232,0.198,0.126,0.14,0.117
AGGACGA,0.0878,0.0607,0.714,1.64,0.0124,1.8,0.169,0.0135,0.0161,0.157
ACGTCTT,-1.53,-0.28,-0.292,-2.04,-0.346,-0.262,-3.07,-0.0352,-0.0585,-0.0414
GTTAATC,0.153,0.186,0.408,0.931,0.0422,1.59,0.192,0.129,0.115,0.156

Sequence,uncleaved DNA left (log2) [1],uncleaved DNA left (log2) [2],uncleaved DNA left (log2) [3],uncleaved DNA left (log2) [4],uncleaved DNA left (log2) [5],uncleaved DNA left (log2) [6],uncleaved DNA left (log2) [7],uncleaved DNA left (log2) [8],uncleaved DNA left (log2) [9],uncleaved DNA left (log2) [10]
CGTTCCA,0.011,0.0294,0.15,-0.225,-0.103,0.0663,-0.184,0.0574,-0.0111,-0.00259
TTGAAGC,0.0879,0.0707,-0.224,-0.54,-0.0127,-1.08,0.23,-0.0696,0.0835,-0.0226
TGACTTT,-0.1,-0.0256,0.27,-0.465,-0.147,1.08,-0.11,-0.158,0.0523,0.152
AATAAGA,0.103,0.016,-0.025,-0.422,0.132,-0.995,0.178,0.0424,-0.00648,-0.00983
AAGCGGT,0.00524,-0.0759,0.178,1.22,-0.135,1.47,-0.147,0.0814,-0.207,-0.0534
GTTGATA,0.12,0.146,0.376,0.95,0.0729,1.86,0.115,0.166,0.182,0.188
ATCGTAA,0.0397,0.041,-0.0772,-0.228,0.106,-0.745,0.13,0.019,0.113,0.0621
CAAACTA,-0.0969,0.0906,-0.334,-2.58,0.0587,-0.589,-0.0797,0.0339,0.0333,-0.0478
TTCAGTA,0.0338,-0.128,0.0875,-0.878,-0.0316,-0.383,-0.145,-0.168,-0.0385,-0.033
ATATCTC,-0.144,0.0502,-0.0822,-0.321,0.119,-0.228,-0.00732,-0.0556,0.0853,0.117
CCCGGAG,0.0258,-0.0875,-0.316,-0.242,-0.0011,-0.799,0.107,0.0652,0.0721,-0.108
TGTCATA,0.0947,0.0949,0.227,0.0326,0.0172,0.657,-0.0595,-0.0516,0.175,0.151
ACAAGGG,-0.0619,-0.0335,-0.711,-0.327,0.0618,-1.03,0.122,0.00969,0.0782,0.000501
GTCTGGC,0.141,0.103,0.429,0.881,0.0342,1.2,0.219,0.106,0.198,0.0801
CTATTGC,-0.129,0.0396,-0.751,0.142,0.0301,-0.871,0.0261,-0.112,0.0378,-0.0209
ATTACAG,-0.0246,0.0256,-0.939,-2.04,0.0215,-1.16,0.138,-0.0373,-0.038,-0.0634
GTCTTAA,-0.0309,0.126,0.378,0.87,-0.0123,1.79,0.0689,0.122,0.0618,0.191
ATATCAT,-0.164,0.11,0.173,-0.501,-0.0151,-0.249,-0.467,0.117,0.066,0.0999
TCACTCT,-0.0071,-0.0492,-0.231,-2.64,-0.107,-0.68,-0.177,-0.0402,-0.0601,-0.124
ACAGTGT,0.013,-0.0721,-0.657,-0.955,-0.0119,-0.912,0.0361,-0.0447,-0.0413,-0.123

Sequence,uncleaved DNA left (log2) [1],uncleaved DNA left (log2) [2],uncleaved DNA left (log2) [3],uncleaved DNA left (log2) [4],uncleaved DNA left (log2) [5],uncleaved DNA left (log2) [6],uncleaved DNA left (log2) [7],uncleaved DNA left (log2) [8],uncleaved DNA left (log2) [9],uncleaved DNA left (log2) [10]
AACCGCC,-0.0221,-0.0292,-0.2,-0.753,-0.0892,-0.821,-0.139,-0.0578,-0.11,0.0436
CTGCAGC,-0.0505,-0.117,-0.407,-0.532,0.104,-1.24,0.072,-0.017,0.00377,-0.136
CATAAGT,-0.0311,-0.122,-0.364,-0.945,0.0558,-1.19,-0.127,0.128,0.0699,-0.0573
GTACAAG,-0.0538,0.00263,-0.348,-0.599,0.0376,-0.82,0.0543,0.0642,-0.0196,-0.0719
CGCGTGC,0.111,-0.0885,-0.238,-0.131,0.0407,-0.529,0.188,-0.0274,-0.00394,-0.037
CCCTAAC,-0.00669,-0.0669,-0.34,-1.53,-0.11,-0.859,-0.0651,-0.00679,0.0299,-0.036
GCATATA,-0.0475,0.0743,-0.00332,-0.439,0.0409,-0.00853,0.0568,0.0181,0.0363,0.0748
TCCCCCA,-0.102,-0.128,0.11,-1.02,-0.0367,-0.397,-0.459,-0.266,-0.0881,-0.0867
CCACATA,0.0288,0.104,-0.0662,-0.919,0.0389,-0.493,0.0842,-0.0398,0.0999,0.0322
AGATCAG,-0.0579,-0.0554,-0.583,-0.491,-0.0316,-1.01,0.131,-0.00404,0.0325,0.0254
GTCTTTG,-0.0604,-0.0852,0.198,0.788,-0.051,1.64,-0.0483,0.053,-0.0902,-0.0802
TCCTGTG,0.0872,0.00522,-0.619,-0.552,0.0433,-0.916,0.149,-0.166,-0.1,0.0181
TCACCTT,0.0514,-0.0443,-0.15,-2.68,-0.0709,-0.395,-0.616,-0.0732,-0.199,-0.138
TTCATCT,-0.00371,0.0405,0.168,-1.64,-0.0754,-0.302,-0.162,0.0234,0.0695,-0.0547
CACGTCG,0.0121,-0.0539,-0.789,-0.203,0.0806,-0.862,0.167,-0.0612,-0.0233,-0.156
TGTGTCT,-0.0311,-0.0496,0.134,-0.538,-0.0791,0.287,-0.281,-0.0855,0.0326,-0.0486
GGTCGCC,0.0909,0.126,0.416,0.906,0.00307,1.22,0.143,0.0293,0.0818,0.105
AGATTTG,0.0348,-0.039,-0.292,-0.145,0.0458,-0.843,0.147,-0.0244,-0.0453,0.0412
AAAGATA,0.2,0.113,0.132,-0.794,0.218,0.946,0.13,0.194,-0.094,0.132
TGCCGAG,-0.106,-0.0584,0.575,1.04,0.0672,1.04,0.00313,-0.0352,-0.00963,-0.118
